16 molecules from US20250243260A1 (ALPINE IMMUNE SCIENCES, published 2025) can be followed below.

First the molecules themselves.
B1: CD80_179-Fc (Fc fusion)
chain: VIHVTKEVKEVATLSCGFNVSVEELAQTRIYWQKEKKMVLTGMSGDMNIWPEYKNRTIYDITNNLSINILALRPSDEGTYECVVLKYEKDAFKREHLAEVTLSVKADGSGGGGS[omitted - human IgG4 Fc with S228P (EU numbers)]
notes: also called H18F, M42G, F59Y, V68N
B2: CD80_191-Fc (Fc fusion)
chain: VIHVTKEVKEYATLSCGHNVSVEELAQYRIYWQKEKKMVLTMMSGDLNIWPEYKNRTIFDITNNLSILILALRPSDEGTYECVVEKYEKDAFKREHLAEVTLSVKADGSGGGGS[omitted - human IgG4 Fc with S228P (EU numbers)]
notes: also called V11Y, T28Y, M47L, V68L, L85E
B3: CD80_180-Fc (Fc fusion)
chain: VIHVTKEVKGWATLSCGHNVSVEELAQYRIYWQKEKKMVLTMMSGDLNIWPEYKNRTIFDITNNLSIVILALRPSDEGTYECVVLKYEKDAFKREHLAEVTLSVKADGSGGGGS[omitted - human IgG4 Fc with S228P (EU numbers)]
notes: also called E10G, V11W, T28Y, M47L
B4: CD80_183-Fc (Fc fusion)
chain: VIHVTKEVKEYATLSCGHNVSVEELAQYRIYWQKEKKMVLTMMSGDLNIWPEYKNRTIFDITNNLSIVILGLRPSDEGTYECVVLKREKDAFKREHLAEVTLSVKADGSGGGGS[omitted - human IgG4 Fc with S228P (EU numbers)]
notes: also called V11Y, T28Y, M47L, A71G, Y87R
B5: CD80_188-Fc (Fc fusion)
chain: VIHVTKEVKEVATLSCGHNVSVEELAQTRIYWQKDKKMVLTMMSGDMNIWPEYKNRTIFDITNNLSILILALRPSDEGTYECVVEKYEKDAFKREHLAEVTLSVKADGSGGGGS[omitted - human IgG4 Fc with S228P (EU numbers)]
notes: also called E35D, V68L, L85E
B6: CD80_190-Fc (Fc fusion)
chain: VIHVTKEVKEVATLSCGHNVSVEELAQYRIYWQKEKKMVLTMMSGDLNIWPEYKNRTIFDITNNLSIVILALRPSDEGTYECVVLKYEKDAFKREHLAEVTLSVKADGSGGGGS[omitted - human IgG4 Fc with S228P (EU numbers)]
notes: also called T28Y, M47L
B7: CD80_189-Fc (Fc fusion)
chain: VIHVTKEVKGWATLSCGHNVSVEELAQTRIYWQKEKKMVLTMMSGDVNIWPEYKNRTIFDITNNLSIVILALRPSDEGTYECVVEKYEKDAFKREHLAEVTLSVKADGSGGGGS[omitted - human IgG4 Fc with S228P (EU numbers)]
notes: also called E10G, V11W, M47V, L85E
B8: CD80_182-Fc (Fc fusion)
chain: VIHVTKEVKGWATLSCGHNVSVEELAQTRIYWQKGKKMVLTMMSGDLNIWPEYKNRTIFDITNNLSIVILGLRPSDEGTYECVVLKREKDAFKREHLAEVTLSVKADGSGGGGS[omitted - human IgG4 Fc with S228P (EU numbers)]
notes: also called E10G, V11W, E35G, M47L, A71G, Y87R
B9: CD80_187-Fc (Fc fusion)
chain: VIHVTKEVKEYATLSCGYNVSVEELAQTRIYWQKGKKMVLTMMSGDMNIWPEYKNRTIFDITNNLSIVILALRPSDEGTYECVVQKYEKDAFKREHLAEVTLSVKADGSGGGGS[omitted - human IgG4 Fc with S228P (EU numbers)]
notes: also called V11Y, H18Y, E35G, L85Q
B10: CD80_184-Fc (Fc fusion)
chain: VIHVTKEVKEYATLSCGHNVSVEELQQTRIYWQKEKKMVLTMMSGDLNIWPEYKNRTIFDITNNLSIVILGLRPSDEGTYECVVLKREKDAFKREHLAEVTLSVKADGSGGGGS[omitted - human IgG4 Fc with S228P (EU numbers)]
notes: also called V11Y, A26Q, M47L, A71G, Y87R
B11: CD80_199-Fc (Fc fusion)
chain: VIHVTKEVKGVATLSCGYNVSVEELAQTRIYWQKEKKMVLTMMSGDMNIWPEYKNRTIFDITNNLSIVILALRPSDEGTYECVVLKYEKDAFKREHLAEVTLSVKADGSGGGGS[omitted - human IgG4 Fc with S228P (EU numbers)]
notes: also called E10G, H18Y
B12: CD80_194-Fc (Fc fusion)
chain: VIHVTKEVKEYATLSCGHNVSVEELAQTRIYWQKEKKMVLTWMSGDMNIWPEYKNRTIFDIANNLSIVILALRPSDEGTYECVVLKYEKDAFKREHLAEVTLSVKADGSGGGGS[omitted - human IgG4 Fc with S228P (EU numbers)]
notes: also called V11Y, M42W, T62A
B13: CD80_181-Fc (Fc fusion)
chain: VIHVTKEVSRYATLSCGHNVSVEELAQTRIYWQKEKKMVLTMMSGDLNIWPEYKNRTIFDITNNLSIVILGLRPSDEGTYECVVLKYEKDAFKREHLAEVTLSVKADGSGGGGS[omitted - human IgG4 Fc with S228P (EU numbers)]
notes: also called K9S, E10R, V11Y, M47L, A71G
B14: CD80_196-Fc (Fc fusion)
chain: VIHVTKEVKEYATLSCGHNVSVEELAQTRIYWQKEKKMVLTWMSGDMNIWPKYKNRTIFDIANNLSIVILALRPSDEGTYECVVEKYEKDAFKREHLAEVTLSVKADGSGGGGS[omitted - human IgG4 Fc with S228P (EU numbers)]
notes: also called V11Y, M42W, E52K, T62A, L85E
B15: CD80_193-Fc (Fc fusion)
chain: VIHVTKEVKEYATLSCGHNVSVEELAQTRIYWQKEKKMVLTWMSGDMNIWPEYKNRTIFDIANNLSIVILALRPSDEGTYECVVEKYEKDAFKREHLAEVTLSVKADGSGGGGS[omitted - human IgG4 Fc with S228P (EU numbers)]
notes: also called V11Y, M42W, T62A, L85E
B16: CD80_197-Fc (Fc fusion)
chain: VIHVTKEVKEYATLSCGHNVSVEELAQTRIYWQKDKKMVLTMMSGDMNIWPEYKNRTIFDITNNLSIVILALRPSDEGTYECVVLKQEKDAFKREHLAEVRLSVKADGSGGGGS[omitted - human IgG4 Fc with S228P (EU numbers)]
notes: also called V11Y, E35D, Y87Q, T101R

The target in this assay is T1, human PD-L1 (human, UniProt Q9NZQ7).
T1 construct: whole, on cells; also called SCC152/PD-L1 cells
T1 sequence (Q9NZQ7 19-290): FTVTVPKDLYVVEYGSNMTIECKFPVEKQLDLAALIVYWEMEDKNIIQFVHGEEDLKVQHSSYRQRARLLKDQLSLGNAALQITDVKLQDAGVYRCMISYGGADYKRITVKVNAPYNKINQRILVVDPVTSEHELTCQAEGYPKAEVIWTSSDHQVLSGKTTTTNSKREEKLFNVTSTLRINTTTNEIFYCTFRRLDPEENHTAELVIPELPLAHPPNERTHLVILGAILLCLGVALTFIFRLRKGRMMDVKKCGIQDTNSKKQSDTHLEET
The assay is described as follows: flow cytometry, SCC152/PD-L1 cells. As for the experimental part: Binding affinity to CD28 was determined using primary human T cells which endogenously express CD28. Binding to PD-L1 was determined using SCC152 cells transduced with human PD-L1. Binding to CTLA-4 was measured using Chinese hamster ovary (CHO) cells stably transduced to express human CTLA-4.
For staining and analysis by flow cytometry, 75,000 human T cells, SCC152/PD-L1 cells, or CHO/CTLA-4 cells were plated in 96-well round-bottom plates. Cells were spun down and resuspended in staining buffer (PBS (phosphate buffered saline), 1% BSA (bovine serum albumin), 1 mM EDTA, and 0.1% sodium azide) for 20 minutes to block non-specific binding. Afterwards, cells were centrifuged, stain buffer aspirated, and then resuspended in 50 μL of a 1:5 serial dilution of each CD80-Fc candidate variant starting at 100 nM ending at 0.8 nM. Primary staining was performed on ice for 60 minutes, before washing cells in […] staining buffer three times. PE-conjugated anti-human Fc (Jackson ImmunoResearch, USA) was diluted 1:250 in 50 μL staining buffer and added to cells and incubated another 30 minutes at 4° C. Cells were washed two times in 150 μL stain buffer and then fixed in 2% formaldehyde/PBS for 5 minutes at room temperature. Samples were analyzed CytoFLEX LX flow cytometer (Beckman Coulter, USA). Median Fluorescence Intensity (MFI) was calculated for each cell type using the CytExpert software from Beckman Coulter.
For orientation: A flow cytometer gives signals particle by particle.
B1: the “Anti-Human Fc (MFI) at 0.8 nM” value amounted to 786 MFI, the “Anti-Human Fc (MFI) at 4 nM” value was determined as 999 MFI, the “Anti-Human Fc (MFI) at 20 nM” value was 1660 MFI and the “Anti-Human Fc (MFI) at 100 nM” value is 3230 MFI. The “fold change vs WT CD80 @20 nM” value was 2.4 fold.
With B2, the “Anti-Human Fc (MFI) at 0.8 nM” value worked out at 1940 MFI, the “Anti-Human Fc (MFI) at 4 nM” value is 5250 MFI, the “Anti-Human Fc (MFI) at 20 nM” value stood at 8680 MFI and the “Anti-Human Fc (MFI) at 100 nM” value was determined as 9620 MFI. Also, the “fold change vs WT CD80 @20 nM” value came to 12.7 fold.
For the molecule B3, the “Anti-Human Fc (MFI) at 0.8 nM” value was determined as 1000 MFI, the “Anti-Human Fc (MFI) at 4 nM” value is 1830 MFI, the “Anti-Human Fc (MFI) at 20 nM” value was 4200 MFI and the “Anti-Human Fc (MFI) at 100 nM” value stood at 6570 MFI. The “fold change vs WT CD80 @20 nM” value worked out at 6.2 fold.
For B4, in that order: 1320 MFI, 3260 MFI, 7900 MFI, 10800 MFI and 11.6 fold.
Taken in the same sequence, the figures for B5 were 1240 MFI, 1970 MFI, 2800 MFI, 3340 MFI and 4.1 fold.
In the case of B6, the “Anti-Human Fc (MFI) at 0.8 nM” value came out at 589 MFI, the “Anti-Human Fc (MFI) at 4 nM” value was 597 MFI, the “Anti-Human Fc (MFI) at 20 nM” value came out at 561 MFI and the “Anti-Human Fc (MFI) at 100 nM” value was 659 MFI.
Consider B7, for which the “Anti-Human Fc (MFI) at 0.8 nM” value was 806 MFI, the “Anti-Human Fc (MFI) at 4 nM” value came out at 854 MFI, the “Anti-Human Fc (MFI) at 20 nM” value came out at 1160 MFI and the “Anti-Human Fc (MFI) at 100 nM” value stood at 1950 MFI. Further, the “fold change vs WT CD80 @20 nM” value was 1.7 fold.
Regarding B8, the “Anti-Human Fc (MFI) at 0.8 nM” value came to 854 MFI, the “Anti-Human Fc (MFI) at 4 nM” value came out at 1220 MFI, the “Anti-Human Fc (MFI) at 20 nM” value was found to be 2740 MFI and the “Anti-Human Fc (MFI) at 100 nM” value stood at 5530 MFI. Further, the “fold change vs WT CD80 @20 nM” value came to 4 fold.
In the case of B9, the “Anti-Human Fc (MFI) at 0.8 nM” value was 836 MFI, the “Anti-Human Fc (MFI) at 4 nM” value is 1070 MFI, the “Anti-Human Fc (MFI) at 20 nM” value came to 1880 MFI and the “Anti-Human Fc (MFI) at 100 nM” value came out at 3360 MFI. The “fold change vs WT CD80 @20 nM” value is 2.7 fold.
Consider B10, for which the “Anti-Human Fc (MFI) at 0.8 nM” value was 1590 MFI, the “Anti-Human Fc (MFI) at 4 nM” value amounted to 3990 MFI, the “Anti-Human Fc (MFI) at 20 nM” value worked out at 9400 MFI and the “Anti-Human Fc (MFI) at 100 nM” value was 11500 MFI. Moreover, the “fold change vs WT CD80 @20 nM” value was 13.8 fold.
Regarding B11, the “Anti-Human Fc (MFI) at 4 nM” value came to 711 MFI, the “Anti-Human Fc (MFI) at 20 nM” value stood at 802 MFI, the “Anti-Human Fc (MFI) at 100 nM” value worked out at 811 MFI and the “fold change vs WT CD80 @20 nM” value came out at 1.2 fold.
Take B12: the “Anti-Human Fc (MFI) at 0.8 nM” value turned out to be 694 MFI, the “Anti-Human Fc (MFI) at 4 nM” value amounted to 859 MFI, the “Anti-Human Fc (MFI) at 20 nM” value was found to be 1480 MFI and the “Anti-Human Fc (MFI) at 100 nM” value stood at 2920 MFI. Further, the “fold change vs WT CD80 @20 nM” value was determined as 2.2 fold.
For B13, in that order: 811 MFI, 1090 MFI, 2210 MFI, 5110 MFI and 3.2 fold.
Regarding B14, the “Anti-Human Fc (MFI) at 0.8 nM” value is 680 MFI, the “Anti-Human Fc (MFI) at 4 nM” value amounted to 932 MFI, the “Anti-Human Fc (MFI) at 20 nM” value was 1690 MFI and the “Anti-Human Fc (MFI) at 100 nM” value stood at 2890 MFI. The “fold change vs WT CD80 @20 nM” value worked out at 2.5 fold.
Taken in the same sequence, the figures for B15 were 710 MFI, 981 MFI, 1770 MFI, 3150 MFI and 2.6 fold.
Taken in the same sequence, the figures for B16 were 799 MFI, 1270 MFI, 3220 MFI, 6100 MFI and 4.7 fold.
